Results reported in the supplement of paper PMC12645437, “Orthogonal IMiD-Degron Pairs Induce Selective Protein Degradation in Cells” (ACS Chemical Biology, 2025).
Some of the results follow.

Target: no compound (DMSO)
Assay: log2 fold change of degron read counts, EGFP-low vs EGFP+ sorted cells; higher = lower degron-EGFP level without compound (poor expression or instability)
Conditions: compound: DMSO control; 18 h
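Also: jurkat cells carrying a lentiviral library of mutant zinc finger degrons fused to EGFP plus mCherry, mCherry+ cells FACS sorted, degron abundance counted by next-generation sequencing.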

Row | Sequence | log2 fold change of degron read counts
1 | FRCDVCGAVFTQKGNLLRHIKL | -1.26
2 | LECEICGFHCTQKGNLLRHIKL | -1.27
3 | FFCPICGHVFTQKGNLLRHIKL | 0.281
4 | LVCNQCGFYCTQKGNLLRHIKL | 1.02
5 | FGCNVCGAEFTQKGNLLRHIKL | -2.14
6 | FWCEVCGAKFTQKGNLLRHIKL | -1.26
7 | FSCPICGRHFTQKGNLLRHIKL | 0.0325
8 | LECPICGFCCTQKGNLLRHIKL | 0.687
9 | FVCEICGAWFTQKGNLLRHIKL | -0.243
10 | LMCEICGFWCTQKGNLLRHIKL | 1.08
11 | FCCNQCGHVFTQKGNLLRHIKL | -0.524
12 | FECEVCGAFFTQKGNLLRHIKL | -1.55
13 | FGCNQCGHNFTQKGNLLRHIKL | 0.78
14 | LKCNQCGFSCTQKGNLLRHIKL | 0.105
15 | FCCPQCGAVFTQKGNLLRHIKL | -0.329
16 | FDCPICGRHFTQKGNLLRHIKL | -1.02
17 | LACNQCGFKCTQKGNLLRHIKL | 0.33
18 | FNCNVCGAAFTQKGNLLRHIKL | -0.232
19 | FICNQCGRGFTQKGNLLRHIKL | -1.64
20 | FGCNQCGHPFTQKGNLLRHIKL | 0.68
21 | LTCEICGFSCTQKGNLLRHIKL | -0.801
22 | FKCPICGAGFTQKGNLLRHIKL | -0.0464
23 | FNCPICGAHFTQKGNLLRHIKL | -0.0644
24 | FTCNQCGAFFTQKGNLLRHIKL | -0.57
25 | FDCPICGAMFTQKGNLLRHIKL | -0.396

Row | Sequence | log2 fold change of degron read counts
26 | FYCEQCGAGFTQKGNLLRHIKL | -0.669
27 | FKCPVCGAIFTQKGNLLRHIKL | -0.205
28 | FKCNQCGRAFTQKGNLLRHIKL | -0.766
29 | FWCEVCGAWFTQKGNLLRHIKL | 0.848
30 | FQCEVCGATFTQKGNLLRHIKL | -1.59
31 | FMCPICGAGFTQKGNLLRHIKL | 0.00124
32 | FFCPICGRGFTQKGNLLRHIKL | -1.68
33 | FNCPICGAFFTQKGNLLRHIKL | 0.579
34 | FACEICGHNFTQKGNLLRHIKL | -0.78
35 | FACEVCGAHFTQKGNLLRHIKL | -1.72
36 | LGCPICGFNCTQKGNLLRHIKL | 1.7
37 | FSCDICGACFTQKGNLLRHIKL | -1.9
38 | FHCDQCGAAFTQKGNLLRHIKL | -1.62
39 | FHCDQCGAYFTQKGNLLRHIKL | -1.45
40 | LHCPICGFICTQKGNLLRHIKL | 1.12
41 | FICDICGAEFTQKGNLLRHIKL | -3.16
42 | FKCNQCGHGFTQKGNLLRHIKL | 0.0732
43 | FACDQCGACFTQKGNLLRHIKL | -1.62
44 | FYCDVCGAHFTQKGNLLRHIKL | -0.829
45 | FTCPQCGARFTQKGNLLRHIKL | -0.24
46 | FFCEICGRSFTQKGNLLRHIKL | -0.887
47 | FYCDICGALFTQKGNLLRHIKL | 0.0335
48 | LDCPICGFICTQKGNLLRHIKL | 1.49
49 | FQCSVCGHLFTQKGNLLRHIKL | -0.281
50 | FICEICGAGFTQKGNLLRHIKL | -2.33
